Laboratory results: PMC4336329 (PLoS ONE, 2015)
The whole screen tested about 310,000 compounds, of which about 14,000 (4.5%) showed an effect of 50% or more. Effects have a minus sign here. The list shows a part of the results.

Target: human ether-à-go-go-related gene (hERG) potassium channel (human, UniProt Q12809)
Assay: primary screen, population patch clamp on CHO cells stably expressing hERG
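Note: peak tail current of the secondary pulse compared with the same well before compound.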

Sequence of human ether-à-go-go-related gene (hERG) potassium channel (Q12809 whole entry, looked up): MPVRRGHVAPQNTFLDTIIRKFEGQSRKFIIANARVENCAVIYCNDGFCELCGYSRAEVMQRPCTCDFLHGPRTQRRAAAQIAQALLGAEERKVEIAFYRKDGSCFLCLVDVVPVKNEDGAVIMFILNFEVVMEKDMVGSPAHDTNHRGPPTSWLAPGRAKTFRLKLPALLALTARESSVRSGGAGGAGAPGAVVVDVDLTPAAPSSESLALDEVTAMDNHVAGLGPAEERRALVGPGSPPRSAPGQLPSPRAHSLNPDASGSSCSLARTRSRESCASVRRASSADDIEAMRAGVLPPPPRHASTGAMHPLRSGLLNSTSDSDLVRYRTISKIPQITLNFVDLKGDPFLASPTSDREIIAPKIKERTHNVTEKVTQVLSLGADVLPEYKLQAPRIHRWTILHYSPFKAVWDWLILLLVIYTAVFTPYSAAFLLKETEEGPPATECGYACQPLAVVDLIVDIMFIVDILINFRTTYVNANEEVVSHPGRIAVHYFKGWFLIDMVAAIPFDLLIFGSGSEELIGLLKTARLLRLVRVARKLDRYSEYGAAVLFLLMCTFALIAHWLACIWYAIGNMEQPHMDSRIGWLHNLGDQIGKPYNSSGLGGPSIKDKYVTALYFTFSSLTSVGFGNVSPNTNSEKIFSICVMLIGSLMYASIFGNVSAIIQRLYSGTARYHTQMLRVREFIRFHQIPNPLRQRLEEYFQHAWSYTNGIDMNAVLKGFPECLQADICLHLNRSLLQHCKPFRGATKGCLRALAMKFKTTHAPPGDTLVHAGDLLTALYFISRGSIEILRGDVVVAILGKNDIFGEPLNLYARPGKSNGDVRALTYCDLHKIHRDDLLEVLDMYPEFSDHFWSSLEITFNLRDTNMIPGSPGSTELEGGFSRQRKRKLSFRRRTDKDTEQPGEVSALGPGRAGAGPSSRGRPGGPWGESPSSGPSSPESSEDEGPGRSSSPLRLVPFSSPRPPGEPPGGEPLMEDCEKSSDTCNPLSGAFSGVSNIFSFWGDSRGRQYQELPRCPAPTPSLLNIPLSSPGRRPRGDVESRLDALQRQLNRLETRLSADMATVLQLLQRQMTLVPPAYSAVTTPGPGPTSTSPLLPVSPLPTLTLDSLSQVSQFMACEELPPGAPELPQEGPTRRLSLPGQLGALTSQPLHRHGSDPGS

Compound	hERG current change (%, negative = inhibition) at 10uM [%]
COc1ccc(/C(C)=N/NC(=O)c2nnn(-c3nonc3N)c2-c2cccs2)cc1OC	6.89
O=C(Nc1ccc(S(=O)(=O)NC2=NCCCCC2)cc1)c1ccc(=O)[nH]c1	19.4
O=C(NC(CCl)c1ccccc1)c1ccc(Cl)cc1 (centres unmarked)	-10.7
COc1cccc(-c2cc(=O)c3cc(NC(=O)c4ccc(N(C)C)cc4)ccc3[nH]2)c1	16.2
CCCCC1C2C(=O)N(c3ccc(C)cc3)C(=O)C2ON1c1ccccc1 (centres unmarked)	3.04
CN(CCCNC(=O)c1cc2c(=O)[nH]c3ccccc3c2n1C)Cc1ccccc1	-29
CCOC(=O)c1sc(Nc2ccc(Br)cc2)nc1C	13.7
Clc1ccc(CN(Cc2ccc(Cl)cc2)c2nn[nH]n2)cc1	-3.21
O=C(c1cccs1)N(Cc1nc2sc3c(c2c(=O)[nH]1)CCCC3)C1CCCC1	-9.55
COc1ccc(C(CNC(=O)COc2ccc(Br)cc2F)N2CCCC2)cc1 (centres unmarked)	-78.6
CCc1sc(C(=O)NCc2ccco2)cc1Br	-1.93
Cc1c(C(=O)N2CCOCC2)c(S(=O)(=O)Nc2ccc(C(C)C)cc2)c(C)n1C	8.96
COc1ccc(OCCC(=O)Nc2cc(C)on2)cc1	4.61
COC(=O)c1[nH]c2cc(C)ccc2c1NC(=O)CN1CCOCC1	-14.2
CC(C)Cc1nnc(NC(=O)c2ccc3c(c2)OCCO3)s1	-6.6
CC(C)(C)c1nnc2sc(SCC(=O)N3CCCc4ccccc43)nn2c1=O	-43.2
Cc1ccc(OCCC(=O)Nc2ccc(S(=O)(=O)N3CCCC3)cc2)cc1	-6.23
CCOc1ccc(N2CC(C(=O)NCc3ccc4c(c3)OCO4)CC2=O)cc1 (centres unmarked)	-27
COc1ccc2nc(NC(=O)C3CCCN(S(=O)(=O)c4cccc5nonc45)C3)sc2c1 (centres unmarked)	14.2
COc1ccc(CCNC(=O)CN(c2ccc(OC)c(OC)c2)S(=O)(=O)c2ccc(C)cc2)cc1	8.72
COc1ccc(-c2nnc(SC(C(=O)c3c[nH]c4ccccc34)c3ccccc3)n2N)cc1OC (centres unmarked)	2.03
CCC1(c2ccccc2)NC(=O)N(CC(=O)NNC(=O)c2ccoc2C)C1=O (centres unmarked)	16.3
Nc1ccnc(=O)[nH]1	16.3

Compound	hERG current change (%, negative = inhibition) at 10uM [%]
CCNC(=S)N(C)CCc1cc2c(c(OC)c1C=C1C(=O)N(C)C(=O)N(C)C1=O)OCO2	20.5
Cc1cc(C(=O)OCC(=O)Nc2ccc(F)cc2)c(C)o1	-9.88
CCC(=NCc1ccco1)c1c(C(F)(F)F)[nH]n(-c2nc3ccccc3s2)c1=O	-2.61
CCOCCn1c(=NC(=O)c2cc3ccccc3oc2=O)sc2cc(S(N)(=O)=O)ccc21	-44.4
O=C1NCCCCC1NS(=O)(=O)c1ccccc1 (centres unmarked)	31.7
Cc1cc(/C=N/n2cnnc2)c(C)n1-c1ccc(OCc2ccc(Cl)cc2Cl)cc1	16.4
CC1CC(=O)C2=C(C1)Nc1ccccc1N=C2 (centres unmarked)	-4.46
Cn1c(CCNC(=O)c2ccco2)nc2cc([N+](=O)[O-])ccc21	-26
COc1cc(S(=O)(=O)N2CCN(c3ccccc3F)CC2)c(OC)cc1Cl	-3.76
CCN1CCN(S(=O)(=O)c2ccc(Cl)c(C(=O)Nc3ccc(OC(F)F)cc3)c2)CC1	-70.4
O=C(O)c1ccc(S(=O)(=O)c2ccc(Sc3ccc(C(=O)O)c(C(=O)O)c3)cc2)cc1	23.3
CCn1c(COc2ccccc2C(N)=O)nc2ccccc21	12.2
O=C(Cc1ccc(Cl)cc1)Nc1ccccc1C(=O)N1CCCCC1	-8.16
Cc1ccccc1Cn1nc(C)c(NC(=O)c2nc3n(n2)C(C(F)F)CC(C)N3)c1C (centres unmarked)	0.0862
CCOc1ccc(/C=N/Nc2cc(C)nc(N3CCOCC3)n2)cc1	3.47
Cc1ccccc1-n1ncc2c1CC(C)(C)CC2NC(=O)CCN1CCCCC1=O (centres unmarked)	13.2
CCOP(=O)(OCC)C(Nc1cccc([N+](=O)[O-])c1)c1ccc(OC)cc1 (centres unmarked)	-5.2
O=C(COC(=O)c1cncc(Br)c1)NCc1ccc(Cl)cc1	14.8
CCC(C)c1ccccc1NC(=O)CN(C)CC(=O)Nc1ccccc1SC (centres unmarked)	1.51
O=C(c1ccc(S(=O)(=O)NCc2ccco2)cc1)N1CCN(c2ccc(F)cc2)CC1	-31.5
Cc1nn(CC(=O)N2CCC(C)CC2)c(=O)c2cccn12	24.1
Cc1cc(CSCc2ccc(Cl)cc2)no1	7.83
CCOC(=O)[C@H]1[C@H]2COc3ccccc3[C@@H]2N2C(=O)c3ccccc3NC(=O)[C@@]12C	-6.47

Compound	hERG current change (%, negative = inhibition) at 10uM [%]
CN(C)c1ccc(C2Nc3ccccc3C(=O)N2NS(C)(=O)=O)cc1 (centres unmarked)	14.2
CCOc1ccc(CC2CC(=O)NC2=O)cc1 (centres unmarked)	12.5
CCOc1ccccc1-n1c(O)c(C=Nc2ccc(N(CC)CC)cc2)c(=O)[nH]c1=O	-0.709
O=C(NN1CCOCC1)c1cc(Cl)ccc1Cl	14.9
Nc1nonc1C(=O)NCCNC(=O)c1cccs1	-58.7
Cc1ccc2[nH]c(=O)c(CN(C)C(=O)c3ccccn3)cc2c1	5.92
O=C(COC(=O)C1CCN(S(=O)(=O)c2ccccc2)CC1)NCCc1ccccc1	-0.193
COC(=O)C1C2c3ccccc3C(c3ccccc32)C1C(=O)OC (centres unmarked)	10.5
COCCNC(=O)CN(C(=O)CCC(=O)Nc1nccs1)c1ccc2c(c1)OCO2	7.83
N#CCCn1cc(C=C(C#N)C#N)c(-c2ccc(-c3ccccc3)cc2)n1	-1.48
COc1ccc(CCNC(=O)C2CCC(C(C)(C)C)CC2)cc1OC (centres unmarked)	-2.46
CN1C(=O)C(O)(CC(=O)c2ccncc2)c2ccccc21 (centres unmarked)	4.7
C/C(=N/NC(=O)c1ccccc1)C1=C(O)CC(C)(C)CC1=O	15
CN(C)C(=O)C1Cc2ccccc2CN1S(=O)(=O)c1ccc(F)cc1 (centres unmarked)	15.2
COc1ccc(NC(=O)C(Br)C(C)C)cc1 (centres unmarked)	25
COc1ccc2cc(S(=O)(=O)N3CCCC3)ccc2c1	10.2
CC(=O)c1sc(Nc2cccc(C)c2)nc1C	-4.43
Cc1ccc(S(=O)(=O)Oc2ccc(/C=C3\C(=N)N4N=C(S(C)(=O)=O)SC4=NC3=O)cc2)cc1	-29.9
Cc1c(NC(=O)C(C)N2C(=O)C3CCCCC3C2=O)c(=O)n(-c2ccccc2)n1C (centres unmarked)	18.8
Cc1cc(C)c(N2C(=O)CCCC2=O)c(Cl)c1	0.934
C/C(=N\NC(=O)c1ccc(NS(=O)(=O)c2cccs2)cc1)c1ccccn1	-12.3
OC(c1ccccc1)c1nc2ccccc2[nH]1 (centres unmarked)	12.9
COC(=O)N/N=C\c1ccc(OC/C=C/c2ccccc2)cc1	15

Compound	hERG current change (%, negative = inhibition) at 10uM [%]
Cc1cccc(NC(=O)CSc2nc(N)c(NC(=O)c3ccccc3F)c(=O)[nH]2)c1	17.3
Cc1ccc(NC(=O)CN(C)C(=O)C(C)OC(=O)c2ccccc2NCCO)cc1 (centres unmarked)	4.93
CC(=O)Oc1ccc(C(=O)O)cc1OC(C)=O	4.12
COc1cccc(NC(=O)Cn2c(=O)n(-c3cc(OC)c(OC)c(OC)c3)c(=O)c3ccccc32)c1	18.6
O=C(c1ccccc1)c1cc([N+](=O)[O-])ccc1N1CCCC1	-12
C[C@H](NC(=O)COc1ccc(Cl)cc1)C(=O)N1CCC2(CC1)NCCc1[nH]cnc12	20.5
CC(=O)Nc1cc(Br)ccc1O	1.29
Cc1ccc(C)c(NC(=S)N2CCC(NC(=O)c3cccc(F)c3)CC2)c1	1.08
O=C(Nc1ccno1)Nc1ccc(Cl)cc1Cl	20.9
O=C(COC(=O)COc1cccc(C(F)(F)F)c1)Nc1ccc(N2CCOCC2)cc1	12.3
Cc1ccc(-c2noc(CN(C)C(=O)c3ccoc3C)n2)cc1	-4.92
CC(C(=O)O)c1ccc2c(c1)[nH]c1ccc(Cl)cc12 (centres unmarked)	25.7
Cc1cc(C)nc(N(C#N)Cc2ccccc2C)n1	-51.4
O=C(NCCN1CCOCC1)c1cc(-c2ccc(Cl)c(Cl)c2)on1	-17.6
CC(CN1CCN(C)CC1)OC(=O)c1ccc(Cl)cc1Cl.Cl (centres unmarked)	-33.6
O=C(COC(=O)c1cccc([N+](=O)[O-])c1)NCC1CCCO1 (centres unmarked)	8.06
C/C(Cl)=C\Cn1c(Nc2ccc(C)cc2)nc2c1c(=O)n(C)c(=O)n2C	4.71
CC1CCC/C(=C\Nc2ccccc2C(=O)O)C1=O (centres unmarked)	-5.76
CS(=O)(=O)N(CC(=O)N1CCCC1)c1ccccc1F	19.4
Cc1ccc(S(=O)(=O)NNC(=O)c2c(O)c3ccccc3[nH]c2=O)cc1	1.41
